Reference: the supplement of paper PMC3334620
Whole data set: some 33,000 sequences, median “E-score (-0.5 to 0.5)” near -0.012, cut for the highest 2% near 0.27. This is one part of the list.

target: T1, Vhr1 (UniProt P40522); assay: PBM E-score (8-mer binding enrichment) (E-score (-0.5 to 0.5)); higher = stronger / more preferred TF binding; most listed sequences are background and not binding sites; conditions: protein concentration: 200 nM; construct: GST-full length
T1 sequence: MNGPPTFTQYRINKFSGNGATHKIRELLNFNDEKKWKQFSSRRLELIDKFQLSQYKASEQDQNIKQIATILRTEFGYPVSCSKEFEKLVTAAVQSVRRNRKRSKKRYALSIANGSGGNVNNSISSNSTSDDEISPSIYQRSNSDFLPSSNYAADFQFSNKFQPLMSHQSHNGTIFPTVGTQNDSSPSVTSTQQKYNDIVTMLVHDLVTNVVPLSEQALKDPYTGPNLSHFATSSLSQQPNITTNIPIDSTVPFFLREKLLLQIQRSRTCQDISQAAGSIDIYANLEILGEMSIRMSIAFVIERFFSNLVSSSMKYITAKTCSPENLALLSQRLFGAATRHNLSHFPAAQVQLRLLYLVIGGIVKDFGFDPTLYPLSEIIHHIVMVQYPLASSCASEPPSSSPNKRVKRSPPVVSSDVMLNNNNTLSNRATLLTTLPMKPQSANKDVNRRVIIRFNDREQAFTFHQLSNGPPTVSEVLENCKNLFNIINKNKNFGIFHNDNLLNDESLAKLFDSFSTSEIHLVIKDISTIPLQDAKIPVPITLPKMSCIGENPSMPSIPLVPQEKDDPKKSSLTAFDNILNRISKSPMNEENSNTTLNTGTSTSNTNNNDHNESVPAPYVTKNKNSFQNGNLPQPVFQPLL
How it was run: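 For each ungapped eight-base word taken together with its reverse complement, the Universal PBM Analysis Suite assigned an E-score. Binding data came from GST-tagged yeast transcription factors, applied at about 100-200 nM, on universal all-10-mer Agilent arrays made double-stranded by primer extension. Fluorescent anti-GST marked bound protein, and scans were normalised with masliner.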

Sequence | PBM E-score
CAGCCGTA | 0.0247
AGTATGGA | 0.0773
CACGATGA | 0.208
AGCCCGTG | -0.0623
AATCAGGC | 0.137
GTTAAAGA | -0.168
ACCCTCCT | -0.116
GATTGAGC | 0.00249
CAGTAGCA | 0.00453
GATTCAGA | 0.305
CCCTACAG | -0.208
ATCTTCAC | 0.0381
ACGCTTCA | -0.139
AAACCCGT | -0.264
CCGGCTTA | -0.108
ACGGTGTC | -0.0633
GACCGCTC | -0.177
CTCTCCAG | -0.232
ACATATGT | 0.0694
AGCTCCCC | -0.0495
CGATCTGA | 0.117
ACAGCGGC | 0.0774
ATTGAGTC | 0.387
GTCTACGA | -0.259

Sequence | PBM E-score
AGTTGTCC | 0.024
CGGAACGA | 0.0817
GTCTAACA | -0.136
AAATTGCA | 0.00925
AAACCGCA | -0.0472
GACCCTGA | -0.082
CATCTATC | 0.0509
TCGGGACA | 0.0337
AGTAGGTG | 0.139
CACGTTCA | -0.131
CCCGGTTC | 0.124
AGGACAAA | 0.0135
GCGCGATA | 0.0668
TGCAGAAA | -0.0168
CGATAAAC | -0.126
GTCTCAGA | -0.0143
AGGCTACC | -0.0109
ATGTTTTG | 0.127
CAGTACGG | 0.164
GCGTCAGC | -0.256
GCTTGCCC | -0.31
CGCTATAC | -0.0131
GTACCGTA | -0.037
GATTGGGC | -0.102

Sequence | PBM E-score
GGAAAACA | 0.0153
CTCTATCA | -0.155
CAAACGTA | 0.00774
ACTGACCT | -0.00202
ACCTCCGG | 0.205
AGAATCCA | 0.143
AAGATATT | 0.153
GTATGTTA | 0.172
CGACTCGC | 0.26
GATTAGTA | 0.198
GAGAATTA | -0.072
ATAACGAC | 0.198
ACCAGACC | 0.21
CCAACGAC | -0.083
GATTAATA | 0.234
GGGGAATA | -0.161
TAAAACAA | -0.284
GAGTGAGC | 0.072
GGGAACAA | 0.0885
CGAGGGAA | 0.0257
CTATTGGC | -0.126
AGTCCGCG | 0.107
AAGGTCAG | -0.221
CCCACGAC | 0.0264

Sequence | PBM E-score
TCGGGGAA | 0.104
CGGGTTAG | -0.167
AATTGAGC | -0.0499
CCAACTCC | 0.17
ACGAAGAT | 0.02
ACACTGTC | -0.0634
AAGCACTC | -0.0746
GCGGAGCA | 0.0687
AATTTCAC | -0.231
ACTCGTCT | 0.122
ACATCTTA | -0.117
CGCATAGC | -0.13
CGTTACAG | 0.0591
GTTACACA | 0.241
AGGGTTCA | 0.0521
CTATTTTA | 0.0714
ATCGTTAA | 0.00271
CCAACAAG | -0.0377
AGTGGTCC | 0.141
CCTGGTAC | 0.0996
GTAATGTA | -0.131
AAGGCTAG | -0.127
